Consider 63 sequences from the BET-seq Pho4 binding data (Le et al. 2018).

This is one part of the list. The energies were worked out here from pooled read counts, against the library average; single values are noisy.

The target in this assay is T1, Pho4 (S. cerevisiae) (UniProt P07270).
T1 sequence: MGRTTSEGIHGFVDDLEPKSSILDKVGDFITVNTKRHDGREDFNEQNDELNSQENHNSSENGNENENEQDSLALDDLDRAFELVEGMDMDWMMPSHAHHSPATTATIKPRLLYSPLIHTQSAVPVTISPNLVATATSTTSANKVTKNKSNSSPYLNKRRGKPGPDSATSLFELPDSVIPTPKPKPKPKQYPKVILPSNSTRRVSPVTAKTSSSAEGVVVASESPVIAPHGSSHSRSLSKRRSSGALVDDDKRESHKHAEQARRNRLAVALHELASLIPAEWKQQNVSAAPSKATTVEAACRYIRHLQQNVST
Nature of the assay: relative binding free energy (BET-seq); higher = weaker binding. The following applies: reference: library average.
For the sequence GGATGCACGTGGAGCG, the “relative binding free energy” value was -0.09 kcal/mol.

In the case of CGGTGCACGTGGTTGC, the “relative binding free energy” value is -0.14 kcal/mol. As for TGGGGCACGTGTTCGC, the figure is -0.19 kcal/mol; as for TTGTTCACGTGCTCAG, 0.24 kcal/mol; as for ATCTGCACGTGGAGGT, -0.04 kcal/mol.

Take GGTGTCACGTGTTGAA: the “relative binding free energy” value came out at 0.04 kcal/mol.

On to CTGCTCACGTGTTATG, for which the “relative binding free energy” value is 0.37 kcal/mol.

For the sequence AGGAGCACGTGGGGTG, the “relative binding free energy” value is -0.32 kcal/mol. Take TATCGCACGTGTGAGT: the “relative binding free energy” value is 0.11 kcal/mol. The result for AGAGGCACGTGGTAGG reads -0.1 kcal/mol; that for TGGGGCACGTGGAAAA, -0.04 kcal/mol. The result for TTTTGCACGTGATAAA reads 0.12 kcal/mol. As to AGTTACACGTGTTTAT, the “relative binding free energy” value stood at 0.08 kcal/mol.

As for TGATTCACGTGCTTTT, the “relative binding free energy” value is 0.27 kcal/mol. On to TACTACACGTGAGGGT, for which the “relative binding free energy” value came out at 0.33 kcal/mol. As for TTCGTCACGTGGTAGA, the figure is 0.02 kcal/mol; as for CGGAACACGTGTAGGT, 0.03 kcal/mol. The result for GTTTCCACGTGATTGG reads 0.2 kcal/mol; that for ATATGCACGTGTTGTG, -0.11 kcal/mol; that for TTTGACACGTGCTTCG, -0.08 kcal/mol.

As to TTCGTCACGTGAAAGG, the “relative binding free energy” value was determined as 0.17 kcal/mol. Regarding GTAAACACGTGTTTAG, the “relative binding free energy” value turned out to be 0.17 kcal/mol.

On to GCTGCCACGTGGGGGG, for which the “relative binding free energy” value is -0.32 kcal/mol. As for GCGGGCACGTGTATTG, the figure is -0.1 kcal/mol; as for CTGGTCACGTGGAGGC, 0.12 kcal/mol; as for TTGTGCACGTGGGTTA, -0.1 kcal/mol. In the case of GATGGCACGTGGGGCT, the “relative binding free energy” value is -0.29 kcal/mol.

For the sequence ATGAGCACGTGTGTAG, the “relative binding free energy” value was 0.05 kcal/mol. For TTTCACACGTGGTATG, the “relative binding free energy” value was -0.04 kcal/mol. As for CAAAACACGTGGGTTG, the figure is -0.1 kcal/mol. On to GTTTGCACGTGACGGC, for which the “relative binding free energy” value came to 0.37 kcal/mol.

As to TATGGCACGTGGTTTG, the “relative binding free energy” value is -0.13 kcal/mol.

Turning to CGGGTCACGTGGTGGA, the “relative binding free energy” value is 0.09 kcal/mol. With AATGCCACGTGGTTTG, the “relative binding free energy” value is -0.11 kcal/mol. The result for ATTTGCACGTGGACGG reads 0.03 kcal/mol; that for TGAATCACGTGATGGA, 0.43 kcal/mol.

Take GATGGCACGTGTGTCG: the “relative binding free energy” value is -0.15 kcal/mol. As for GAGAGCACGTGGCGGG, the figure is -0.27 kcal/mol; as for TTAATCACGTGCTGGT, 0.1 kcal/mol; as for TTTCTCACGTGAGGTA, 0.28 kcal/mol. Consider TGTTCCACGTGTTTGT, for which the “relative binding free energy” value was 0.05 kcal/mol. With TGGATCACGTGGCAGT, the “relative binding free energy” value amounted to 0.07 kcal/mol. As for AAGTTCACGTGATTGT, the “relative binding free energy” value was 0.27 kcal/mol.

For the sequence GAGTTCACGTGTGGTA, the “relative binding free energy” value amounted to 0.52 kcal/mol. As for GTGGCCACGTGTTTAT, the figure is -0.08 kcal/mol; as for CATGGCACGTGTGGGG, 0.02 kcal/mol. Take GGTAACACGTGGCGGG: the “relative binding free energy” value came out at 0.08 kcal/mol. The result for GTAGGCACGTGTTGTG reads -0.1 kcal/mol. As to TAGTTCACGTGACGTA, the “relative binding free energy” value was found to be 0.38 kcal/mol. The result for GTCTTCACGTGTTGAT reads 0.3 kcal/mol; that for GTCAGCACGTGAAGTT, 0.29 kcal/mol. As for AATTTCACGTGTTGGG, the figure is 0.32 kcal/mol. For the sequence TGTAGCACGTGAGAGT, the “relative binding free energy” value is 0.13 kcal/mol. For the sequence GCAGGCACGTGGGAGT, the “relative binding free energy” value was -0.16 kcal/mol.

Regarding AAGGGCACGTGGGGCC, the “relative binding free energy” value is -0.17 kcal/mol. The result for ATTTTCACGTGTTCGG reads 0.28 kcal/mol; that for AGGGGCACGTGGCTGT, -0.22 kcal/mol. For TTGTGCACGTGAGGGG, the “relative binding free energy” value is 0.21 kcal/mol.

On to GAGGTCACGTGAGATG, for which the “relative binding free energy” value is 0.38 kcal/mol.

As for TTTAGCACGTGTCGGG, the “relative binding free energy” value is -0.09 kcal/mol. The result for TTTTTCACGTGCGGAA reads 0.14 kcal/mol.

With GTGTCCACGTGGTCGT, the “relative binding free energy” value was -0.04 kcal/mol. As for TGGTCCACGTGAGATG, the figure is 0.24 kcal/mol.
